Laboratory results from PubChem BioAssay AID485341 (National Center for Advancing Translational Sciences (NCATS), 2010).
The whole screen tested about 330,000 compounds, of which about 1,700 (0.52%) were called active. Inconclusive results, whose numbers are uncertain, are shown with a selection of clear calls. Calls follow the shape of the dose curve; as a rule, active = well fitted inhibition curve with a large enough effect; inconclusive = small, poorly fitted or top-dose-only effect; inactive = no such curve, though single readings can be large or run the other way. A potency beside an inconclusive call is a rough fit, not a confirmed value.

These compounds were tested against Beta-lactamase (Escherichia coli (strain K12)) (UniProt P00811) (assay: qHTS Inhibitors of AmpC Beta-Lactamase (assay without detergent)). Conditions: AmpC nitrocefin hydrolysis, absorbance 480 nm, 0.0001% Triton; series mostly up to 57.1 µM.
UniProt P00811, sequence (P00811 whole entry, looked up): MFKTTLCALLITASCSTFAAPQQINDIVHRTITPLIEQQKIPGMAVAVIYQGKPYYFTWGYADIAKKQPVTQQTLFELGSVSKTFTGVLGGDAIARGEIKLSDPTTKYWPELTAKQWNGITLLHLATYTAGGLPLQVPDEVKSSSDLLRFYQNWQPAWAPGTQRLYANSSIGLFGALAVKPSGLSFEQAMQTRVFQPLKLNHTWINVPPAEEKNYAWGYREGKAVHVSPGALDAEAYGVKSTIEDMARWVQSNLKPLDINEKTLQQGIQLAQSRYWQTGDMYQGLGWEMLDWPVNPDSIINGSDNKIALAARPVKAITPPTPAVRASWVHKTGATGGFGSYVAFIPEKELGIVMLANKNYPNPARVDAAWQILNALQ
Method in brief: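 AmpC (5.3 nM in the dispensed reagent) in 20 mM phosphate pH 7.0 with 0.01% (detergent screen) or 0.0001% Triton X-100 was preincubated with compounds for 15 min at room temperature. Nitrocefin was then added from an 800 uM solution, and hydrolysis was followed at 480 nm.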
Also: nearly all actives have a fitted effect of over 20% in size.
Potency is read from the fitted curve at half-maximal effect; tags tell the direction and shape of the fitted curve.

| SMILES | Potency |
| --- | --- |
| CCNC(=O)CC1C(=O)N(c2ccc(F)cc2)C(=S)N1CCc1ccncc1 (stereo unspecified) | inactive |
| O=C(Nc1cc(Cl)ccc1-n1cncn1)c1cc(F)c(F)c(F)c1F | inconclusive: 31.6 µM [inhibitor, single point] |
| Cc1cccc(C)c1N(CC(=O)Nc1cc(Cl)ccc1Oc1ccccc1)S(C)(=O)=O | active: 0.158 µM |
| COc1cc(C(=O)Oc2ccccc2/C=N/NC(=O)c2ccc(Cl)cc2Cl)cc(OC)c1OC | inconclusive: 1.12 µM [inhibitor, partial curve, poor fit] |
| O=C(NCCn1ccc2ccccc21)C1CCCCC1 | inactive |
| O=C(CSC(=S)N1CCOCC1)c1cc(Br)cc(Br)c1O | active: 20 µM |
| Cc1ccc(Cc2cnc(N3C(=N)SC(c4ccccc4)C3=O)s2)cc1 (stereo unspecified) | inconclusive: 11.2 µM [inhibitor, partial curve] |
| O=C(c1cc2cc([N+](=O)[O-])ccc2s1)N1CCCCC1 | inconclusive: 0.891 µM [inhibitor, single point] |
| CC(C)NC(=O)CCc1nnc(Cc2cccc(C(F)(F)F)c2)o1 | inactive |
| O=C(NCc1ccco1)c1ccc2c(c1)C(=O)N(Cc1ccccc1)C2=O | inconclusive: 6.31 µM [inhibitor, single point] |
| CCOC(=O)c1ccc(N2CCN(c3ccccc3F)CC2)c(NC(=O)Nc2ccccc2)c1 | inconclusive: 3.55 µM [inhibitor, partial curve] |
| CC(C)COc1ccc2[nH]c3c(c2c1)CCCC3=O | inconclusive: 7.08 µM [inhibitor, single point] |
| COC(=O)CC(c1ccc(F)cc1)n1c(C)ccc1C (stereo unspecified) | inactive |
| O=C(Cn1nnc(-c2ccccc2)n1)Nc1cccc(S(=O)(=O)N2CCOCC2)c1 | active: 17.8 µM |
| CCOC(=O)C(=O)/C(=C\N(C)C)c1onc(-c2ccccc2Cl)c1C(=O)OC | inconclusive: 1.12 µM [inhibitor, partial curve, poor fit] |
| Cc1ccc(C)c(NC(=O)C(Sc2nc3ccc(C)cc3[nH]2)c2ccccc2)c1 (stereo unspecified) | inconclusive: 3.16 µM [inhibitor, partial curve] |
| N#Cc1sc2nc(-c3ccccc3)cc(-c3ccco3)c2c1N | inconclusive: 3.16 µM [inhibitor, partial curve, poor fit] |
| Cc1ccccc1C(=O)NC(NC(=S)Nc1ccc(S(N)(=O)=O)cc1)C(Cl)(Cl)Cl (stereo unspecified) | active: 20 µM |
| CC1CCc2nn(CC(=O)NCCCN3CCOCC3)cc2C1 (stereo unspecified) | inconclusive: 50.1 µM [inhibitor, partial curve, poor fit] |
| CC(C)CN(C(=O)COC(=O)CSc1ccccc1F)c1c(N)n(Cc2ccccc2)c(=O)[nH]c1=O | inconclusive: 7.08 µM [inhibitor, partial curve] |
| COc1ccc(C(=O)c2sc(Nc3ccc(NC(C)=O)cc3)nc2C)cc1 | inconclusive: 8.91 µM [inhibitor, partial curve] |
| Cc1ccc(Nc2nc(-c3ccc(S(=O)(=O)N4CCCC4)cc3)cs2)cc1C | inconclusive: 15.8 µM [inhibitor, partial curve] |
| COc1cccc(Cn2cccc(NC(=O)Nc3cccc(C#N)c3)c2=O)c1 | inactive |

| SMILES | Potency |
| --- | --- |
| Cc1cc(C)cc(Oc2ccccc2/C=N\O)c1 | inconclusive: 8.91 µM [inhibitor, single point] |
| O=S(=O)(c1ccccc1Cl)N1CCCC1c1nc(-c2cccc(Cl)c2)no1 (stereo unspecified) | inconclusive: 0.447 µM [inhibitor, full curve, poor fit] |
| Cc1cc(C(=O)CSc2nn(-c3ccccc3)c(=S)s2)c(C)n1Cc1ccco1 | active: 28.2 µM |
| O=C(CSc1nnc(-c2ccccc2)o1)N1CCCCC1 | inactive |
| CN(CC(=O)Nc1cccc(F)c1)C(=O)c1cc([N+](=O)[O-])ccc1N1CCCCC1 | inactive |
| c1ccc(CNc2ncnc3nc[nH]c23)cc1 | inactive |
| CCOc1ccc(NC(=O)CC2C(=O)N(c3ccc(OC)cc3)C(=O)N2CCc2cccs2)cc1 (stereo unspecified) | inconclusive: 7.08 µM [inhibitor, single point] |
| Cc1cccc(C(=O)OCC(=O)Nc2ccc3c(c2)OCCO3)c1O | inconclusive: 28.2 µM [inhibitor, single point] |
| COc1ccc(CN2C(=O)NC(=O)/C(=C/c3ccoc3)C2=O)cc1 | active: 10 µM |
| O=C(Nc1nc(-c2ccccc2)c(C(=O)c2ccccc2)s1)c1ccc(S(=O)(=O)N2CCCCC2)cc1 | inconclusive: 35.5 µM [inhibitor, single point] |
| CC(C)CN(C(=O)COC(=O)c1ccc2c(c1)OCCO2)c1c(N)n(Cc2ccccc2)c(=O)[nH]c1=O | inconclusive: 28.2 µM [inhibitor, single point] |
| O=C(NCCSCc1ccco1)Nc1ccccc1 | inconclusive: 5.01 µM [inhibitor, full curve, poor fit] |
| COc1ccc(Cc2nnc(NC(=O)Cc3cccs3)s2)cc1OC | inconclusive: 17.8 µM [inhibitor, partial curve] |
| N#CCC(=O)Nc1ccc(C(=O)NCCC(c2ccccc2)c2ccccc2)cc1 | active: 7.94 µM |
| O=C(NNC(=O)c1cc2cc3ccccc3nc2s1)c1cccc(Cl)c1 | inconclusive: 20 µM [inhibitor, single point] |
| Cc1cc(C)c(NC(=O)c2ccc3nccnc3c2)c(C)c1 | inactive |
| O=C1CC(NS(=O)(=O)c2cccnc2)CN1c1cccc(F)c1 (stereo unspecified) | inconclusive: 39.8 µM [inhibitor, single point] |
| Cc1ccc(-n2nnnc2SCC(=O)Nc2sc(C)c(C)c2C#N)cc1C | active: 0.316 µM |
| COc1ccc(CNC(=O)c2ccc(N3CCCC3=O)cc2)cc1 | inactive |
| Nc1ccc(O)cc1C(=O)OCC(=O)C12CC3CC(CC(C3)C1)C2 | active: 12.6 µM |
| C=CCn1c(SCC(=O)Nc2ccc(Br)cc2)nc(O)c(CC)c1=O | inactive |
| CC1CCN(S(=O)(=O)c2ccc3c(c2)oc(=O)n3CC(=O)N2CCc3ccccc3C2)CC1 | inactive |
| CC(C)c1cc(C(=O)NCc2ccco2)no1 | inconclusive: 0.631 µM [inhibitor, full curve, poor fit] |
